Here are results for 45 compounds from article PMC4336329 (PLoS ONE, 2015).

Structures are written as SMILES. In all, about 310,000 compounds went through this assay and about 14,000 (4.5%) showed an effect of 50% or more. The effect is printed as a negative number. Some of the results follow.
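Also: peak tail current of the secondary pulse compared with the same well before compound.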

Sequence of human ether-à-go-go-related gene (hERG) potassium channel (Q12809 whole entry, looked up): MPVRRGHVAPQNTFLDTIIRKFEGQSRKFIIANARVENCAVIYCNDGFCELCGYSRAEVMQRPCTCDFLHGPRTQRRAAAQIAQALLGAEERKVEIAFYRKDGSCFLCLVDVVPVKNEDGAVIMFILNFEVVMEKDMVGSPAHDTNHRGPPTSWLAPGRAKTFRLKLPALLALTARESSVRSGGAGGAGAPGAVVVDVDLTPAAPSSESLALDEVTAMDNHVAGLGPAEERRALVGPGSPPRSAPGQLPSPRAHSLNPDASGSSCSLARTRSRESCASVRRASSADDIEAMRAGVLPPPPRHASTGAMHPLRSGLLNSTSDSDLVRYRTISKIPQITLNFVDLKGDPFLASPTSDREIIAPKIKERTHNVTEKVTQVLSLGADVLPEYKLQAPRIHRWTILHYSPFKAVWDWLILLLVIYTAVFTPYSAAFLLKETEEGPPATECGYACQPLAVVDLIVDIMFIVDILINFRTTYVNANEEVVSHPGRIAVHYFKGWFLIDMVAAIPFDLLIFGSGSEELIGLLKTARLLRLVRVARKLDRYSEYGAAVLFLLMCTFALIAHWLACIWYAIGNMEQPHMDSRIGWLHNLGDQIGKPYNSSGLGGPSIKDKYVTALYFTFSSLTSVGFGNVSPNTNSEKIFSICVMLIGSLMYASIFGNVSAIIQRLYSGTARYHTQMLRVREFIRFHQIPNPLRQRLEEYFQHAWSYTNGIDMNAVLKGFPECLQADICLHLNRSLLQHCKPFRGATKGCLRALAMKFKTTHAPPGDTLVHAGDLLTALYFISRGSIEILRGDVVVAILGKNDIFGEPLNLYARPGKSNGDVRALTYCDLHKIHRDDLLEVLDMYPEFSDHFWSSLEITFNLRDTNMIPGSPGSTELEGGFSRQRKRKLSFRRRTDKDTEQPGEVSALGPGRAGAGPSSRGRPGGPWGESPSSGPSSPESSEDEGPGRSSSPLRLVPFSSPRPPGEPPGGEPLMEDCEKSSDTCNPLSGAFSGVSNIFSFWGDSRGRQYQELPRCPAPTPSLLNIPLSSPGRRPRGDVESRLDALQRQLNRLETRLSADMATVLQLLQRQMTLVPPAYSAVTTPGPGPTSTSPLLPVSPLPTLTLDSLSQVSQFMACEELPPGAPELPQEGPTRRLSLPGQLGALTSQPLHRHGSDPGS

The test concerns the target human ether-à-go-go-related gene (hERG) potassium channel (human, UniProt Q12809). Nature of the test: primary screen, population patch clamp on CHO cells stably expressing hERG.
As for `COc1ccccc1CNC(=O)[C@@H]1CCCN1C(=O)[C@@H]1Cc2ccccc2CN1C(=O)OC(C)(C)C`, the “hERG current change (%, negative = inhibition) at 10uM” value amounted to 2.41%.
In the case of `C[C@@]12CCC=C[C@H]1[C@H](c1ccc(/C=C/c3ccccc3)cc1F)N(Cc1ccccc1)C2=O`, the “hERG current change (%, negative = inhibition) at 10uM” value turned out to be 23.9%.
Consider `O=[N+]([O-])c1ccc(N2CCN(S(=O)(=O)c3ccc4ccccc4c3)CC2)cc1NCc1ccco1`, for which the “hERG current change (%, negative = inhibition) at 10uM” value was 14.7%.
Take `CC1CCCCN1S(=O)(=O)c1ccc(S(=O)(=O)N(CC(=O)Nc2ccccc2)Cc2cccs2)cc1` (stereo not drawn): the “hERG current change (%, negative = inhibition) at 10uM” value is recorded as 28.6%.
The same measure for `COc1ccc(CN2CCNC(=O)C2CC(=O)NCc2cn3ccc(C)cc3n2)c(OC)c1` (stereo not drawn): -8.13%.
Consider `Cc1cc(C)n(S(=O)(=O)c2cc(C(=O)O)c(Cl)cc2Cl)n1`, for which the “hERG current change (%, negative = inhibition) at 10uM” value came out at 3.12%.
The same measure for `N#Cc1ccc(-c2ccc(OCC(O)CN3CCOCC3)cc2)cc1` (stereo not drawn): -18.4%.
The same measure for `COCCCN=Cc1c(C)[nH]n(-c2ccc(Br)c(C)c2)c1=O`: -9.32%.
Consider `Cc1ccccc1N(CC(=O)NCc1ccco1)C(=O)CCC(=O)Nc1nccs1`, for which the “hERG current change (%, negative = inhibition) at 10uM” value was -9.81%.
The value for `CCOC(=O)C1(CCCc2ccccc2)CCN(C(=O)CCn2cnnn2)CC1` was -56.6%; that for `O=C(c1cc(-c2cccnc2)nc2ccc(Cl)cc12)N1CCC2(CC1)OCCO2` was -14.2%; that for `CC(C)c1nnc(NC(=O)CCC(=O)Nc2ccc(F)cc2)s1` was 18.7%.
For the compound `CS(=O)(=O)c1ccc2nc(NC(=O)c3ccccc3)sc2c1`, the “hERG current change (%, negative = inhibition) at 10uM” value is listed as 10.8%.
On to `CCc1ccc(N(CC(=O)NC2CCCCC2)C(=O)CNC(=O)c2ccco2)cc1`, for which the “hERG current change (%, negative = inhibition) at 10uM” value is -13.6%.
On to `CCN1CCN(C(=O)c2ccc3c(=O)n(C4CCCC4)c(=S)[nH]c3c2)CC1`, for which the “hERG current change (%, negative = inhibition) at 10uM” value was -12.7%.
The value for `Cc1nn(-c2ccc(F)cc2)c2nc(N)c(C#N)c(-c3ccc(O)c(O)c3)c12` was 23.7%; that for `O=C(CSc1n[nH]c(=O)n1C1CC1)NCc1ccccc1` was 1.18%.
The value for `COc1ccc(CCNc2oc(-c3ccccc3OC)nc2C#N)cc1OC` was -1.1%.
The same measure for `COc1ccccc1C(=O)Oc1ccc(C(C)C)cc1`: -3.13%.
Regarding `COc1ccc(/C=C(/NC(=O)c2ccco2)C(=O)N2CCCCC2)cc1`, the “hERG current change (%, negative = inhibition) at 10uM” value came out at 17.2%.
The same measure for `O=c1cc(N2CCN(Cc3ccccc3)CC2)c(-c2ccccc2)n[nH]1`: -1.87%.
The value for `Cc1ncc(CO)c2cc(S(=O)(=O)c3ccc(F)cc3)c(=O)oc12` was 19.2%.
The value for `CC(C)CCn1c(CN2CCOCC2)nc2c1c(=O)n(C)c(=O)n2C` was 1.4%; that for `C=CCNc1ncnc2ccc(Br)cc12` was 3.72%.
As for `Cc1nc(NCC2CCCO2)c2nnn(Cc3ccccc3)c2n1` (stereo not drawn), the “hERG current change (%, negative = inhibition) at 10uM” value stood at 6.57%.
The same measure for `CCS(=O)(=O)c1ccc2oc(SCC(=O)NC3CCCC(C)C3C)nc2c1` (stereo not drawn): -38.8%; for `CC1CN(C(C)C(=O)NC(c2ccccc2)c2ccccc2)CC(C)O1` (stereo not drawn): 1.52%.
The same measure for `O=C(N/N=C1/CCCc2ccccc21)c1cc([N+](=O)[O-])cc([N+](=O)[O-])c1`: 16.6%; for `c1csc(CNc2ncnc3sccc23)c1`: -20.3%; for `COc1ccc(N2CC(C(=O)Nc3nc4ccc(S(C)(=O)=O)cc4s3)CC2=O)cc1` (stereo not drawn): 3.32%.
The value for `O=c1cc(N2CCN(Cc3ccccc3)CC2)[nH]c(=O)n1Cc1ccc(F)cc1` was 5.93%.
As to `COc1ccccc1OCC(=O)OCc1cc(-c2ccco2)on1`, the “hERG current change (%, negative = inhibition) at 10uM” value was found to be 8.5%.
The same measure for `NC(=O)c1ccc(CSc2nc3ccccc3s2)cc1`: 11.1%; for `Cc1ccc2nc(Cl)c(/C=N/NC(=O)c3ccccc3O)cc2c1`: 6.27%; for `O=C(COC(=O)c1cnccn1)Nc1ccc(Cl)cc1`: -4%.
The same measure for `O=C(NCCC1=CCCCC1)c1cc(COc2ccc(F)cc2Cl)on1`: 10.4%.
Regarding `CCOc1ccc(N/C(SC)=C(/C#N)C(N)=O)cc1`, the “hERG current change (%, negative = inhibition) at 10uM” value stood at 4.98%.
For `Cc1cc(C)n(CC(O)CN2c3ccccc3Sc3ccccc32)n1` (stereo not drawn), the “hERG current change (%, negative = inhibition) at 10uM” value came out at 9.03%.
The value for `O=C(Nc1cc(N2CCOCC2)ncn1)NC1(C(F)(F)F)Oc2ccc(Cl)cc2O1` (stereo not drawn) was 3.83%.
The same measure for `CC(=O)Nc1ccc(OCC(=O)c2ccc(C)cc2C)cc1`: 1.97%.
The value for `CCN(C(=O)Cn1c(=O)n2nc(CCn3nc(C)cc3C)nc2c2ccccc21)c1cccc(C)c1` was -24.7%.
Consider `CC(C)NC(=O)[C@]1(C)CCC[C@@]2(C)C3CC[C@@]4(C)C[C@]3(CCC21)CC4=O` (stereo partly drawn), for which the “hERG current change (%, negative = inhibition) at 10uM” value is on record as 6.23%.
`CCCn1c(SCC(=O)Nc2ccc(C)c(S(=O)(=O)N3CCOCC3)c2)n[nH]c1=O`: the “hERG current change (%, negative = inhibition) at 10uM” value is 11%.
As to `CCn1c(SCC(=O)c2c(N)n(C3CC3)c(=O)[nH]c2=O)nnc1-c1ccccc1OC`, the “hERG current change (%, negative = inhibition) at 10uM” value is listed as 21.3%.
For the compound `CN(C)C(=O)CSc1nc2ccc(N3C(=O)c4ccccc4C3=O)cc2s1`, the “hERG current change (%, negative = inhibition) at 10uM” value is reported as 8.41%.
